# The list shows a part of the results.
# B1: FimA-N1 (Actinomyces oris) (protein)
# chain: MHHHHHHSSGVDLGTENLYFQSNATETPNYGNIKTDATGSLVIHKHLTGGGKDIGTPTGTAQNADDKGPAVEGVVFTAYPITDINLKDPAGWDTISNLSRTGVPDSACANPAAPTLGAHQFGTPKVSPATTKEGLATITEMPVQAYLVCETTTPGDIVQKAKPFVVTIPHPNTAAGADGQWIYDVNVYPKNEAIDVDKTIQAQK
# Experiments:
# Experiment in all cases: glycan array binding signal (z-score within array); higher = stronger binding
# Conditions in all cases: glycan notation: IUPAC condensed, linker removed
# Fuc(a1-2)Gal = target: Fuc(a1-2)Gal
# Summary of the method: (§1)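 From the Consortium for Functional Glycomics database, 3228 arrays were curated, keeping only those whose protein sequence was available. Binding is given as a within-array Z-score averaged across arrays sharing a protein sequence and across linkers. Negative Z-scores can be read as non-binding.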
# Fuc(a1-2)Gal(b1-3)GalNAc = target: Fuc(a1-2)Gal(b1-3)GalNAc
# Summary of the method: as §1
# [1] = target: Fuc(a1-2)Gal(b1-3)GalNAc(a1-3)[Fuc(a1-2)]Gal(b1-4)Glc
# Summary of the method: as §1
# [2] = target: Fuc(a1-2)Gal(b1-3)GalNAc(a1-3)[Fuc(a1-2)]Gal(b1-4)GlcNAc
# Summary of the method: as §1
# [3] = target: Fuc(a1-2)Gal(b1-3)GalNAc(b1-3)Gal
# Summary of the method: as §1
# [4] = target: Fuc(a1-2)Gal(b1-3)GalNAc(b1-3)Gal(a1-4)Gal(b1-4)Glc
# Summary of the method: as §1
# [5] = target: Fuc(a1-2)Gal(b1-3)GalNAc(b1-4)[Neu5Ac(a2-3)]Gal(b1-4)Glc
# Summary of the method: as §1
# Fuc(a1-2)Gal(b1-3)GlcNAc = target: Fuc(a1-2)Gal(b1-3)GlcNAc
# Summary of the method: as §1
# [6] = target: Fuc(a1-2)Gal(b1-3)GlcNAc(b1-2)Man(a1-3)[Fuc(a1-2)Gal(b1-3)GlcNAc(b1-2)Man(a1-6)]Man(b1-4)GlcNAc(b1-4)GlcNAc
# Summary of the method: as §1
# [7] = target: Fuc(a1-2)Gal(b1-3)GlcNAc(b1-2)Man(a1-3)[Fuc(a1-2)Gal(b1-3)GlcNAc(b1-2)Man(a1-6)]Man(b1-4)GlcNAc(b1-4)[Fuc(a1-6)]GlcNAc
# Summary of the method: as §1
# [8] = target: Fuc(a1-2)Gal(b1-3)GlcNAc(b1-3)Gal(b1-4)Glc
# Summary of the method: as §1
# [9] = target: Fuc(a1-2)Gal(b1-3)GlcNAc(b1-3)GalNAc
# Summary of the method: as §1
# [10] = target: Fuc(a1-2)Gal(b1-3)GlcNAc(b1-3)[Fuc(a1-2)Gal(b1-3)GlcNAc(b1-6)]GalNAc
# Summary of the method: as §1
# [11] = target: Fuc(a1-2)Gal(b1-3)GlcNAc(b1-3)[Gal(b1-4)GlcNAc(b1-6)]Gal(b1-4)Glc
# Summary of the method: as §1
# [12] = target: Fuc(a1-2)Gal(b1-3)GlcNAc(b1-3)[Neu5Ac(a2-6)Gal(b1-4)GlcNAc(b1-6)]Gal(b1-4)Glc
# Summary of the method: as §1
# [13] = target: Fuc(a1-2)Gal(b1-3)GlcNAc6S
# Summary of the method: as §1
# [14] = target: Fuc(a1-2)Gal(b1-3)[Fuc(a1-4)]GlcNAc
# Summary of the method: as §1
# [15] = target: Fuc(a1-2)Gal(b1-3)[Fuc(a1-4)]GlcNAc(b1-2)Man(a1-3)[Fuc(a1-2)Gal(b1-3)[Fuc(a1-4)]GlcNAc(b1-2)Man(a1-3)]Man(b1-4)GlcNAc(b1-4)GlcNAc
# Summary of the method: as §1
# [16] = target: Fuc(a1-2)Gal(b1-3)[Fuc(a1-4)]GlcNAc(b1-2)Man(a1-3)[Fuc(a1-2)Gal(b1-3)[Fuc(a1-4)]GlcNAc(b1-2)Man(a1-6)]Man(b1-4)GlcNAc(b1-4)[Fuc(a1-6)]GlcNAc(b1-4)[Fuc(a1-6)]GlcNAc
# Summary of the method: as §1
# [17] = target: Fuc(a1-2)Gal(b1-3)[Fuc(a1-4)]GlcNAc(b1-3)[Fuc(a1-3)[Gal(b1-4)]GlcNAc(b1-6)]Gal(b1-4)Glc
# Summary of the method: as §1
# [18] = target: Fuc(a1-2)Gal(b1-3)[Fuc(a1-4)]GlcNAc(b1-3)[Gal(b1-4)GlcNAc(b1-6)]Gal(b1-4)Glc
# Summary of the method: as §1
# Fuc(a1-2)Gal(b1-4)Glc = target: Fuc(a1-2)Gal(b1-4)Glc
# Summary of the method: as §1
# Fuc(a1-2)Gal(b1-4)Glc6S = target: Fuc(a1-2)Gal(b1-4)Glc6S
# Summary of the method: as §1
# Fuc(a1-2)Gal(b1-4)GlcNAc = target: Fuc(a1-2)Gal(b1-4)GlcNAc
# Summary of the method: as §1
# [19] = target: Fuc(a1-2)Gal(b1-4)GlcNAc(b1-2)Man
# Summary of the method: as §1
# [20] = target: Fuc(a1-2)Gal(b1-4)GlcNAc(b1-2)Man(a1-3)[Fuc(a1-2)Gal(b1-4)GlcNAc(b1-2)Man(a1-6)]Man(b1-4)GlcNAc(b1-4)GlcNAc
# Summary of the method: as §1
# [21] = target: Fuc(a1-2)Gal(b1-4)GlcNAc(b1-2)Man(a1-3)[Fuc(a1-2)Gal(b1-4)GlcNAc(b1-2)Man(a1-6)]Man(b1-4)GlcNAc(b1-4)[Fuc(a1-6)]GlcNAc
# Summary of the method: as §1
# [22] = target: Fuc(a1-2)Gal(b1-4)GlcNAc(b1-2)[Fuc(a1-2)Gal(b1-4)GlcNAc(b1-4)]Man(a1-3)[Fuc(a1-2)Gal(b1-4)GlcNAc(b1-2)Man(a1-6)]Man(b1-4)GlcNAc(b1-4)GlcNAc
# Summary of the method: as §1
# [23] = target: Fuc(a1-2)Gal(b1-4)GlcNAc(b1-3)Gal(b1-4)GlcNAc
# Summary of the method: as §1
# [24] = target: Fuc(a1-2)Gal(b1-4)GlcNAc(b1-3)Gal(b1-4)GlcNAc(b1-2)Man(a1-3)[Fuc(a1-2)Gal(b1-4)GlcNAc(b1-3)Gal(b1-4)GlcNAc(b1-2)Man(a1-6)]Man(b1-4)GlcNAc(b1-4)GlcNAc
# Summary of the method: as §1
# [25] = target: Fuc(a1-2)Gal(b1-4)GlcNAc(b1-3)Gal(b1-4)GlcNAc(b1-3)Gal(b1-4)GlcNAc
# Summary of the method: as §1
# [26] = target: Fuc(a1-2)Gal(b1-4)GlcNAc(b1-3)GalNAc
# Summary of the method: as §1
# [27] = target: Fuc(a1-2)Gal(b1-4)GlcNAc(b1-3)[Fuc(a1-2)Gal(b1-4)GlcNAc(b1-6)]GalNAc
# Summary of the method: as §1
# [28] = target: Fuc(a1-2)Gal(b1-4)GlcNAc(b1-3)[Fuc(a1-3)[Gal(b1-4)]GlcNAc(b1-6)]Gal(b1-4)Glc
# Summary of the method: as §1
# [29] = target: Fuc(a1-2)Gal(b1-4)GlcNAc(b1-6)GalNAc
# Summary of the method: as §1
# [30] = target: Fuc(a1-2)Gal(b1-4)GlcNAc6S
# Summary of the method: as §1
# [31] = target: Fuc(a1-2)Gal(b1-4)[Fuc(a1-3)]GlcNAc
# Summary of the method: as §1
binder,measurement,setting,value
B1,glycan array binding signal (z-score),Fuc(a1-2)Gal,-0.18
same,glycan array binding signal (z-score),Fuc(a1-2)Gal(b1-3)GalNAc,-0.402
same,glycan array binding signal (z-score),[1],-0.336
same,glycan array binding signal (z-score),[2],-0.25
same,glycan array binding signal (z-score),[3],2.83
same,glycan array binding signal (z-score),[4],-0.245
same,glycan array binding signal (z-score),[5],-0.117
same,glycan array binding signal (z-score),Fuc(a1-2)Gal(b1-3)GlcNAc,-0.136
same,glycan array binding signal (z-score),[6],-0.181
same,glycan array binding signal (z-score),[7],-0.204
same,glycan array binding signal (z-score),[8],-0.268
same,glycan array binding signal (z-score),[9],-0.224
same,glycan array binding signal (z-score),[10],-0.128
same,glycan array binding signal (z-score),[11],-0.277
same,glycan array binding signal (z-score),[12],-0.19
same,glycan array binding signal (z-score),[13],-0.093
same,glycan array binding signal (z-score),[14],-0.275
same,glycan array binding signal (z-score),[15],0.231
same,glycan array binding signal (z-score),[16],-0.015
same,glycan array binding signal (z-score),[17],-0.187
same,glycan array binding signal (z-score),[18],-0.183
same,glycan array binding signal (z-score),Fuc(a1-2)Gal(b1-4)Glc,-0.366
same,glycan array binding signal (z-score),Fuc(a1-2)Gal(b1-4)Glc6S,-0.379
same,glycan array binding signal (z-score),Fuc(a1-2)Gal(b1-4)GlcNAc,-0.16
same,glycan array binding signal (z-score),[19],0.065
same,glycan array binding signal (z-score),[20],0.742
same,glycan array binding signal (z-score),[21],-0.24
same,glycan array binding signal (z-score),[22],-0.069
same,glycan array binding signal (z-score),[23],-0.319
same,glycan array binding signal (z-score),[24],-0.175
same,glycan array binding signal (z-score),[25],-0.348
same,glycan array binding signal (z-score),[26],0.044
same,glycan array binding signal (z-score),[27],-0.462
same,glycan array binding signal (z-score),[28],-0.014
same,glycan array binding signal (z-score),[29],-0.096
same,glycan array binding signal (z-score),[30],-0.052
same,glycan array binding signal (z-score),[31],0.461
